This is one part of the list.
Assays:
Experiment in all cases: glycan array binding signal (z-score within array); higher = stronger binding
Conditions in all cases: glycan notation: IUPAC condensed, linker removed
[1] = target: GlcNAc(a1-4)Gal(b1-4)GlcNAc(b1-3)Gal(b1-4)GlcNAc
Method in brief: (§1)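 The binding signal is a Z-score computed within each array. Data were drawn from 3228 arrays in the Consortium for Functional Glycomics database, restricted to those with a known protein sequence. Scores were averaged over arrays of the same protein sequence at different concentrations or buffers, and over linkers, and negative values can be taken as non-binding.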

[2] = target: GlcNAc(a1-4)Gal(b1-4)GlcNAc(b1-3)Gal(b1-4)GlcNAc(b1-3)Gal(b1-4)GlcNAc
Method in brief: as §1

[3] = target: GlcNAc(a1-4)Gal(b1-4)GlcNAc(b1-3)Gal(b1-4)[Fuc(a1-3)]GlcNAc(b1-3)Gal(b1-4)[Fuc(a1-3)]GlcNAc
Method in brief: as §1

[4] = target: GlcNAc(a1-6)Gal(b1-4)GlcNAc
Method in brief: as §1

[5] = target: GlcNAc(b1-2)Gal(b1-3)GalNAc
Method in brief: as §1

[6] = target: GlcNAc(b1-2)Man(a1-3)[GlcNAc(b1-2)Man(a1-6)]Man(b1-4)GlcNAc(b1-4)GlcNAc
Method in brief: as §1

[7] = target: GlcNAc(b1-2)Man(a1-3)[GlcNAc(b1-2)Man(a1-6)]Man(b1-4)GlcNAc(b1-4)[Fuc(a1-6)]GlcNAc
Method in brief: as §1

[8] = target: GlcNAc(b1-2)Man(a1-3)[GlcNAc(b1-4)][GlcNAc(b1-2)Man(a1-6)]Man(b1-4)GlcNAc(b1-4)GlcNAc
Method in brief: as §1

[9] = target: GlcNAc(b1-2)[GlcNAc(b1-4)]Man(a1-3)[GlcNAc(b1-2)Man(a1-6)]Man(b1-4)GlcNAc(b1-4)GlcNAc
Method in brief: as §1

[10] = target: GlcNAc(b1-2)[GlcNAc(b1-4)]Man(a1-3)[GlcNAc(b1-4)][GlcNAc(b1-2)Man(a1-6)]Man(b1-4)GlcNAc(b1-4)GlcNAc
Method in brief: as §1

[11] = target: GlcNAc(b1-2)[GlcNAc(b1-4)]Man(a1-3)[GlcNAc(b1-4)][GlcNAc(b1-2)[GlcNAc(b1-6)]Man(a1-6)]Man(b1-4)GlcNAc(b1-4)GlcNAc
Method in brief: as §1

[12] = target: GlcNAc(b1-2)[GlcNAc(b1-6)]Man(a1-6)[GlcNAc(b1-2)Man(a1-3)]Man(b1-4)GlcNAc(b1-4)GlcNAc
Method in brief: as §1

[13] = target: GlcNAc(b1-2)[GlcNAc(b1-6)]Man(a1-6)[GlcNAc(b1-2)Man(a1-3)][GlcNAc(b1-4)]Man(b1-4)GlcNAc(b1-4)GlcNAc
Method in brief: as §1

GlcNAc(b1-3)Gal = target: GlcNAc(b1-3)Gal
Method in brief: as §1

[14] = target: GlcNAc(b1-3)Gal(b1-3)GalNAc
Method in brief: as §1

GlcNAc(b1-3)Gal(b1-4)Glc = target: GlcNAc(b1-3)Gal(b1-4)Glc
Method in brief: as §1

[15] = target: GlcNAc(b1-3)Gal(b1-4)GlcNAc
Method in brief: as §1

[16] = target: GlcNAc(b1-3)Gal(b1-4)GlcNAc(b1-3)Gal(b1-4)GlcNAc
Method in brief: as §1

GlcNAc(b1-3)GalNAc = target: GlcNAc(b1-3)GalNAc
Method in brief: as §1

GlcNAc(b1-3)Man = target: GlcNAc(b1-3)Man
Method in brief: as §1

[17] = target: GlcNAc(b1-3)[GlcNAc(b1-4)][GlcNAc(b1-6)]GlcNAc
Method in brief: as §1

[18] = target: GlcNAc(b1-3)[GlcNAc(b1-6)]Gal(b1-4)GlcNAc
Method in brief: as §1

[19] = target: GlcNAc(b1-3)[GlcNAc(b1-6)]GalNAc
Method in brief: as §1

[20] = target: GlcNAc(b1-4)Gal(b1-4)GlcNAc
Method in brief: as §1

GlcNAc(b1-4)GlcNAc = target: GlcNAc(b1-4)GlcNAc
Method in brief: as §1

[21] = target: GlcNAc(b1-4)GlcNAc(b1-4)GlcNAc
Method in brief: as §1

[22] = target: GlcNAc(b1-4)GlcNAc(b1-4)GlcNAc(b1-4)GlcNAc(b1-4)GlcNAc
Method in brief: as §1

[23] = target: GlcNAc(b1-4)GlcNAc(b1-4)GlcNAc(b1-4)GlcNAc(b1-4)GlcNAc(b1-4)GlcNAc
Method in brief: as §1

[24] = target: GlcNAc(b1-4)[GlcNAc(b1-6)]GalNAc
Method in brief: as §1

[25] = target: GlcNAc(b1-6)Gal(b1-4)GlcNAc
Method in brief: as §1

GlcNAc(b1-6)GalNAc = target: GlcNAc(b1-6)GalNAc
Method in brief: as §1

GlcNAc3Prop(b1-4)GlcNAc = target: GlcNAc3Prop(b1-4)GlcNAc
Method in brief: as §1

[26] = target: GlcNAc6S(b1-3)Gal(b1-4)GlcNAc
Method in brief: as §1

Kdn(a2-3)Gal(b1-3)GalNAc = target: Kdn(a2-3)Gal(b1-3)GalNAc
Method in brief: as §1

Kdn(a2-3)Gal(b1-3)GlcNAc = target: Kdn(a2-3)Gal(b1-3)GlcNAc
Method in brief: as §1

Kdn(a2-3)Gal(b1-4)Glc = target: Kdn(a2-3)Gal(b1-4)Glc
Method in brief: as §1

Kdn(a2-3)Gal(b1-4)GlcNAc = target: Kdn(a2-3)Gal(b1-4)GlcNAc
Method in brief: as §1

[27] = target: Kdn(a2-3)Gal(b1-4)[Fuc(a1-3)]GlcNAc
Method in brief: as §1

Kdn(a2-6)Gal(b1-4)GlcNAc = target: Kdn(a2-6)Gal(b1-4)GlcNAc
Method in brief: as §1

[28] = target: Man(a1-2)Man(a1-2)Man(a1-3)Man
Method in brief: as §1

[29] = target: Man(a1-2)Man(a1-2)Man(a1-6)[Man(a1-3)]Man
Method in brief: as §1

Man(a1-2)Man(a1-3)Man = target: Man(a1-2)Man(a1-3)Man
Method in brief: as §1

[30] = target: Man(a1-2)Man(a1-3)[Man(a1-2)Man(a1-6)]Man
Method in brief: as §1

[31] = target: Man(a1-2)Man(a1-3)[Man(a1-2)Man(a1-6)]Man(a1-6)[Man(a1-2)Man(a1-2)Man(a1-3)]Man
Method in brief: as §1

[32] = target: Man(a1-2)Man(a1-3)[Man(a1-2)Man(a1-6)]Man(a1-6)[Man(a1-2)Man(a1-2)Man(a1-3)]Man(b1-4)GlcNAc(b1-4)GlcNAc
Method in brief: as §1

B1: CVN (Nostoc ellipsosporum), P81180 (protein)
chain: LGKFSQTCYNSAIQGSVLTSTCERTNGGYNTSSIDLNSVIENVDGSLKWQPSNFIETCRNTQLAGSSELAAECKTRAQQFVSTKINLDDHIANIDGTLKYE
[1]
  glycan array binding signal (z-score): -0.203
[2]
  glycan array binding signal (z-score): -0.3
[3]
  glycan array binding signal (z-score): 0.346
[4]
  glycan array binding signal (z-score): -0.301
[5]
  glycan array binding signal (z-score): -0.306
[6]
  glycan array binding signal (z-score): -0.281
[7]
  glycan array binding signal (z-score): 1.13
[8]
  glycan array binding signal (z-score): -0.304
[9]
  glycan array binding signal (z-score): 0.024
[10]
  glycan array binding signal (z-score): -0.298
[11]
  glycan array binding signal (z-score): -0.294
[12]
  glycan array binding signal (z-score): -0.3
[13]
  glycan array binding signal (z-score): -0.302
GlcNAc(b1-3)Gal
  glycan array binding signal (z-score): -0.304
[14]
  glycan array binding signal (z-score): -0.296
GlcNAc(b1-3)Gal(b1-4)Glc
  glycan array binding signal (z-score): -0.302
[15]
  glycan array binding signal (z-score): -0.234
[16]
  glycan array binding signal (z-score): -0.296
GlcNAc(b1-3)GalNAc
  glycan array binding signal (z-score): -0.306
GlcNAc(b1-3)Man
  glycan array binding signal (z-score): -0.301
[17]
  glycan array binding signal (z-score): -0.305
[18]
  glycan array binding signal (z-score): -0.302
[19]
  glycan array binding signal (z-score): -0.302
[20]
  glycan array binding signal (z-score): -0.296
GlcNAc(b1-4)GlcNAc
  glycan array binding signal (z-score): -0.301
[21]
  glycan array binding signal (z-score): -0.305
[22]
  glycan array binding signal (z-score): -0.305
[23]
  glycan array binding signal (z-score): -0.306
[24]
  glycan array binding signal (z-score): -0.295
[25]
  glycan array binding signal (z-score): -0.302
GlcNAc(b1-6)GalNAc
  glycan array binding signal (z-score): -0.302
GlcNAc3Prop(b1-4)GlcNAc
  glycan array binding signal (z-score): -0.3
[26]
  glycan array binding signal (z-score): -0.222
Kdn(a2-3)Gal(b1-3)GalNAc
  glycan array binding signal (z-score): -0.196
Kdn(a2-3)Gal(b1-3)GlcNAc
  glycan array binding signal (z-score): -0.306
Kdn(a2-3)Gal(b1-4)Glc
  glycan array binding signal (z-score): -0.296
Kdn(a2-3)Gal(b1-4)GlcNAc
  glycan array binding signal (z-score): -0.298
[27]
  glycan array binding signal (z-score): -0.271
Kdn(a2-6)Gal(b1-4)GlcNAc
  glycan array binding signal (z-score): -0.305
[28]
  glycan array binding signal (z-score): 5.16
[29]
  glycan array binding signal (z-score): 5.83
Man(a1-2)Man(a1-3)Man
  glycan array binding signal (z-score): 3.06
[30]
  glycan array binding signal (z-score): 3.6
[31]
  glycan array binding signal (z-score): 7.15
[32]
  glycan array binding signal (z-score): 5.21
